# Assay results: the supplement of paper PMC12217912
# This is one part of the list. The full chains were built here from the parent and the listed change. Values near 0.05 are background.
# B1: TEV protease; numbered along this chain (parent)
# chain: MGESLFKGPRDYNPISSSICHLTNESDGHTTSLYGIGFGPFIITNKHLFRRNNGTLVVQSLHGVFKVKDTTTLQQHLVDGRDMIIIRMPKDFPPFPQKLKFREPQREERICLVTTNFQTKSMSSMVSDTSCTFPSGDGIFWKHWIQTKDGQCGSPLVSTRDGFIVGIHSASNFTNTNNYFTSVPKNFMELLTNQEAQQWVSGWRLNADSVLWGGHKVFMVKPEEPFQPVKEATQL
# Variants of: B1
# Assay: raw area under fraction-flipped curve 0-4 h after induction (AUC4h, not background-subtracted), DNA-recorder readout of cleavage of the substrate (dimensionless); higher = more cleavage of the substrate by the protease variant
# Conditions: temperature: 34 °C; time window: 0-4 h after rhamnose induction
# Protocol: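 In vivo DNA recorder in E. coli TOP10(DE3) ΔrhaA at 34 °C. Each TEVp single-site mutant (parent TEVp 0) is paired with a single-site variant of the 7-mer TEVs (canonical ENLYFQ|S). The substrate sits between flexible linkers in a Bxb1-sfGFP-TEVs-SsrA fusion, so cleavage stabilises Bxb1 and speeds flipping of a recombination array, read by NGS. The value is the raw area under the fraction-flipped curve over 0-4 h after rhamnose induction (AUC4h), with ≥20 reads per time point. It is not background-subtracted; inactive controls average about 0.047.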
# 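Also: Bxb1 expression induced with 0.2% (w/v) L-rhamnose at OD600 near 0.5, cultures sampled hourly, flipped fraction per protease–substrate barcode pair counted by paired-end Illumina sequencing.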
Variant,area with substrate ENLYFQA,area with substrate ENLYFQC,area with substrate ENLYFQD,area with substrate ENLYFQE,area with substrate ENLYFQG,area with substrate ENLYFQH,area with substrate ENLYFQI,area with substrate ENLYFQL,area with substrate ENLYFQM,area with substrate ENLYFQN,area with substrate ENLYFQR,area with substrate ENLYFQS,area with substrate ENLYFQT,area with substrate ENLYFQV,area with substrate ENLYFQW,area with substrate ENLYFQY,area with substrate ENLYFQF,area with substrate ENLYFQK,area with substrate ENLYFQP,area with substrate ENLYFQQ
V126Y,0.0799,0.118,0.0798,0.0747,0.11,0.0853,0.0563,0.0616,0.0941,0.0604,0.0675,0.102,0.0551,0.0608,0.0697,0.0778,–,–,–,–
S127E,0.0819,0.132,0.0684,–,0.0868,0.0673,0.0538,0.0675,0.0964,0.0289,0.0573,0.0964,0.0634,0.0736,–,0.054,0.0779,0.0355,0.0647,0.0866
S127G,0.105,0.131,–,–,0.114,0.0915,0.084,0.0493,0.0917,0.0528,0.073,0.113,0.0687,0.044,0.0684,0.0749,0.0609,0.0642,0.0515,0.0734
S127K,0.105,–,–,–,0.0535,0.0864,–,0.062,–,–,0.051,0.101,0.0657,–,–,–,0.096,–,–,–
T132I,0.0936,–,–,0.057,0.0936,0.0719,0.051,0.0641,–,0.078,0.0691,0.101,0.0699,0.0719,0.0707,–,–,–,0.04,0.0612
F133K,0.104,0.129,0.0716,–,–,0.0604,–,0.0747,0.111,0.0831,0.0627,0.109,0.0798,0.063,0.0663,–,–,0.0565,0.0708,–
F133W,0.0832,0.123,0.0862,–,–,0.0734,0.0641,0.0608,–,0.0896,0.0734,0.101,0.0694,0.0603,–,0.0883,–,0.0663,–,0.0046
P134D,0.0755,0.084,0.0618,–,0.0821,0.0587,0.0564,0.0542,0.0633,0.0783,0.0606,0.0836,0.0594,0.0585,0.0564,0.0512,0.0544,0.0573,0.0634,0.0561
S135R,0.0633,0.0723,0.0782,0.0627,–,–,–,0.0618,0.0608,0.0662,0.0551,0.0664,0.0521,0.0611,0.0633,0.0621,–,0.0566,0.0546,0.0566
F140G,0.0572,0.0551,–,0.0579,0.0637,–,0.0476,0.0737,0.0712,0.0673,0.0543,0.063,0.058,0.0577,0.0537,0.0601,0.0382,0.0596,0.0578,–
W141I,0.0653,0.0649,–,–,0.064,–,0.058,0.0472,–,0.0427,0.0537,0.0643,–,–,0.033,–,–,0.0523,0.0561,0.0655
K142I,0.0684,0.0875,–,0.0799,0.0785,0.0799,0.0639,0.0741,0.0769,0.0819,0.053,0.0902,0.0349,0.083,0.0515,0.0836,0.102,0.0677,–,0.091
K142L,0.115,0.127,0.0908,–,0.0919,0.0625,0.0778,0.0643,0.104,0.0933,0.0602,0.115,0.0789,0.0586,0.0794,0.0998,0.0853,0.0772,–,0.0783
I145K,0.0646,0.0556,–,0.059,0.0545,–,0.0401,0.0538,–,0.0578,0.0687,0.0598,0.0443,0.053,–,0.0555,–,0.0368,0.0658,0.0595
Q146C,0.0873,–,0.0972,–,–,0.0886,0.0676,0.0613,–,0.073,0.0454,0.12,0.0963,–,0.0726,–,–,0.0792,–,0.108
Q146K,0.121,0.126,0.079,0.0655,0.106,–,0.0552,0.0668,0.0923,0.0807,0.0623,0.0985,0.0549,0.0646,0.0589,0.0708,0.0813,0.0649,0.0547,–
Q146M,0.146,0.131,–,–,0.0988,–,0.0625,0.063,0.0905,0.0791,–,0.135,–,–,–,–,–,0.0537,–,–
K148E,0.0675,0.106,–,0.0507,–,0.0662,0.0683,0.0702,0.0929,0.0954,0.0536,0.0918,0.0596,0.0553,0.0738,–,–,0.0804,0.0791,0.0711
K148Q,0.0955,–,0.0575,–,0.0665,–,–,0.0596,0.0872,0.0754,0.0691,0.103,0.0744,–,0.0751,–,0.071,–,–,–
K148R,0.0838,0.1,0.0738,–,–,–,0.0569,0.0649,0.0884,0.0968,0.0653,0.108,0.0759,–,0.0656,–,–,0.0634,–,–
D149Y,0.0788,0.096,0.0588,0.0573,0.0763,0.0754,0.0604,0.0603,0.0702,0.0571,0.0477,0.0762,0.0928,0.057,0.0615,0.0558,–,0.06,0.0632,–
G150H,0.0883,0.0654,–,–,0.0577,0.0584,0.059,0.0672,0.073,0.0579,0.0662,0.0566,0.054,0.0603,–,0.0448,–,0.0639,0.0622,0.0769
G150V,0.0528,0.0549,0.0544,–,0.0516,0.0582,0.0575,0.058,0.0583,0.0572,0.0622,0.0608,0.0641,0.0528,–,0.0652,0.0696,0.058,0.0554,0.0502
